Here are results for 92 compounds from PubChem BioAssay AID1347073 (National Center for Advancing Translational Sciences (NCATS), 2019).

Out of some 45,000 compounds screened, about 200 (0.44%) were called active. Another 7% or so got no clear call; they are omitted. Calls follow the shape of the dose curve; as a rule, active = well fitted activation curve with a large enough effect; inconclusive = small, poorly fitted or top-dose-only effect; inactive = no such curve, though single readings can be large or run the other way. Some of the results follow.

The nature of the assay: qHTS of TDP-43 Inhibitors: NCGC Sytravon Library Screen. Also: 0% is about no effect; nearly all actives have a fitted effect of over 55% in size. The conditions noted are these: yeast TDP-43 toxicity rescue, BacTiter-Glo growth, 24 h; at 46.1 µM (top of the series). A digest of the protocol: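 TDP-43-expressing yeast, pregrown in raffinose, seeded at OD600 0.02 in galactose medium with compound for 24 hr at 30 deg C. Growth read by BacTiter-Glo luminescence, so rescue of toxicity appears as activation.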
As for `O=[N+]([O-])c1cc(F)c(N2CCCC2)cc1Br`, the growth rescue (activation) was inactive: 14.5%.

For `CCN(CC)c1ccc(/C=C2\C(=O)NC(=S)N(C)C2=O)o1`, the growth rescue (activation) was inactive: 0.559%.

Take `CN1CCc2nc(SCc3ccccc3Br)c(C#N)cc2C1`: the growth rescue (activation) was inactive: -6.51%.

For the compound `C[C@]12CCC3C(CCC4=CC(O)CC[C@@]43/C=N/O)C1(O)CCC2C1=CC(=O)OC1` (some centres not stated), the growth rescue (activation) was inactive: -13.8%.

Take `Cc1[nH]c2ccc(OC(F)(F)F)cc2c1CCNCc1cccc([N+](=O)[O-])c1`: the growth rescue (activation) was inactive: 7.49%.

For `CC12CC[C@H]3[C@@H](CCC4(O)C[C@H](O)CCC34/C=N/NC(=O)c3ccccc3[N+](=O)[O-])C1(O)CCC2C1=CC(=O)OC1` (some centres not stated), the growth rescue (activation) is inactive: 10.2%.

As for `NC(Cc1ccc(Cl)cc1)c1csc(Nc2cnccn2)n1` (configuration not stated), the growth rescue (activation) was inactive: 5.48%.

`CC/C(=N\NC(=O)c1ccccc1)c1c(O)n(Cc2ccccc2)c(=O)[nH]c1=O`: the growth rescue (activation) is inactive: 4.14%.

As for `C=CCn1c(O)c(C(C)=NCCC(c2ccccc2)c2ccccc2)c(=O)[nH]c1=O`, the growth rescue (activation) is inactive: 2.43%.

In the case of `O=[N+]([O-])c1ccc(N2CCNCC2)cc1N1CCCCC1`, the growth rescue (activation) is inactive: -17.4%.

Take `Cc1ccsc1C(=O)C1CCCN(CCO)C1` (configuration not stated): the growth rescue (activation) is inactive: -0.685%.

Regarding `CCOC(=O)Cn1cc(C=C2C(=O)N(C)C(=O)N(C)C2=O)c2ccccc21`, the growth rescue (activation) is inactive: 17.8%.

With `O=C1NC(=O)N(c2ccc3c(c2)OCO3)C(=O)/C1=C/c1ccc(N2CCCCC2)o1`, the growth rescue (activation) was inactive: 3.66%.

Turning to `CC(=O)OC1N=C(c2ccccc2)c2cc(Br)ccc2N(C)C1=O` (configuration not stated), the growth rescue (activation) was inactive: 10.5%.

As for `COc1cccc(NC(=O)Cn2cc(C(=O)c3ccccc3)c3ccccc32)c1`, the growth rescue (activation) was inactive: 4.03%.

Take `O=Cc1cn(Cc2ccccc2F)c2ccccc12`: the growth rescue (activation) was inactive: 6.2%.

Turning to `Fc1ccccc1CNCCc1c[nH]c2ccccc12`, the growth rescue (activation) was inactive: 11.4%.

For the compound `O=c1[nH]c(O)c(Cc2ccc3c(c2)OCO3)c(=O)[nH]1`, the growth rescue (activation) was inactive: 9.11%.

As to `O=C1C2CCCN2C(c2cccnc2)N1c1nccs1` (configuration not stated), the growth rescue (activation) was inactive: 6.9%.

For `CCOc1ccc(NC(=O)Cn2cc(C(=O)c3ccccc3)c3ccccc32)cc1`, the growth rescue (activation) was inactive: 7.24%.

With `O=c1[nH]c(O)c(/C=C2/C=CC(c3cc(Cl)ccc3Cl)=N2)c(=O)[nH]1`, the growth rescue (activation) was inactive: 6.07%.

In the case of `CCOC(=O)N(c1ccccc1)P1(=S)OCCO1`, the growth rescue (activation) is inactive: 4.58%.

For `O=C1/C(=C/c2ccc3c(c2)OCO3)N2CCC1CC2`, the growth rescue (activation) was inactive: -6.53%.

Consider `O=C(O)C1C2CC3CC(C2)CC1(n1ncc(N2CCC4(CC2)OCCO4)c(Cl)c1=O)C3` (configuration not stated), for which the growth rescue (activation) is inactive: 13.7%.

As to `O=S(=O)(c1ccccc1)N1CC1c1ccccc1` (configuration not stated), the growth rescue (activation) was inactive: -4.45%.

For `Cc1ccc(-n2c(O)c(C=NCCCn3ccnc3)c(=O)[nH]c2=O)cc1`, the growth rescue (activation) was inactive: -0.837%.

On to `CN1CCN(c2nc(Cl)ncc2F)CC1`, for which the growth rescue (activation) was inactive: 11.1%.

Consider `Cc1ccccc1-n1c(O)c(/C=N/N2CCOCC2)c(=O)[nH]c1=S`, for which the growth rescue (activation) was inactive: 5.81%.

Take `O=C(NCCN1CCOCC1)c1ccc(Cl)nc1`: the growth rescue (activation) was inactive: -6.56%.

For the compound `Cc1ccccc1-n1c(O)c(/C=N/NC(=O)c2ccncc2)c(=O)[nH]c1=O`, the growth rescue (activation) was inactive: -13.6%.

Regarding `CCC(=NCCC1=CCCCC1)c1c(O)[nH]c(=O)[nH]c1=O`, the growth rescue (activation) is inactive: 10.6%.

For the compound `COC(=O)C(O)(c1ccc(NC(=O)NC2CCCCC2)cc1)C(F)(F)F` (configuration not stated), the growth rescue (activation) is inactive: 6.2%.

In the case of `Cc1ccc(NC(=O)Cn2cc(C(=O)c3ccccc3)c3ccccc32)cc1`, the growth rescue (activation) is inactive: 4.25%.

On to `Cn1c(O)c(/C=N/N2CCCCC2)c(=O)[nH]c1=O`, for which the growth rescue (activation) is inactive: -7.24%.

Regarding `CCn1cc(CN2CCCC(C(=O)c3cccc(OC)c3)C2)c(C)n1` (configuration not stated), the growth rescue (activation) was inactive: 5.91%.

For `CN1C(=O)N(C)C(=O)C2(Cc3cc([N+](=O)[O-])ccc3N(C)C2c2ccccc2)C1=O` (configuration not stated), the growth rescue (activation) was inactive: 2.01%.

For `CCOc1cc2c(cc1OCC)-n1cccc1C(c1ccc(C(C)C)cc1)NC2` (configuration not stated), the growth rescue (activation) is inactive: 12%.

For the compound `CCOc1ccccc1-n1c(O)c(C=NCCCN(CC)CC)c(=O)[nH]c1=O`, the growth rescue (activation) is inactive: 29.5%.

As to `Cc1cccc(N=Nc2ccc(N(C)C)cc2)c1`, the growth rescue (activation) was inactive: 13.1%.

`O=c1c2ccccc2nc(/C=C/c2ccc3c(c2)OCO3)n1-c1cccc(O)c1`: the growth rescue (activation) is inactive: 13.9%.

Turning to `Cc1ccc(C)c(NC2=NCCCS2)c1`, the growth rescue (activation) is inactive: -16.1%.

As to `CC1(C)CSC(=NCc2ccccc2)N1`, the growth rescue (activation) is inactive: 9.65%.

With `Cc1ccc(OCCn2cccc2/C=C2/C(=O)NC(=O)N(Cc3ccco3)C2=O)cc1`, the growth rescue (activation) is inactive: 2.34%.

On to `Fc1ccc(C2=CCN(C(c3ccc(Cl)cc3)c3nnnn3Cc3ccccc3)CC2)cc1` (configuration not stated), for which the growth rescue (activation) is inactive: 22.1%.

Take `COC(=O)Cn1cc(/C=C2\C(=O)NC(=O)N(c3ccc(OC)cc3)C2=O)c2ccccc21`: the growth rescue (activation) is inactive: -36.7%.

As for `CCCCN=C[C@]12CCC(O)CC1(O)CCC1[C@@H]2CC[C@]2(C)[C@H](C3C=CC(=O)O3)CCC12O` (some centres not stated), the growth rescue (activation) is inactive: -21.2%.

Regarding `CN(C)/C=C/C(=O)C(Cl)(Cl)Cl`, the growth rescue (activation) was inactive: 17.7%.

Regarding `C[C@]12CCC3C(CC[C@H]4C[C@@H](O)CC[C@]34C)C1C[C@@H](O)[C@@H]2O` (some centres not stated), the growth rescue (activation) is inactive: 12.4%.

In the case of `Cc1c(C=O)c2ccccc2n1Cc1ccc([N+](=O)[O-])cc1`, the growth rescue (activation) was inactive: 23.8%.

Consider `C[C@]12C=CC(=O)C=C1CC[C@@H]1C2CC[C@]2(C)OC(=O)CCC12` (some centres not stated), for which the growth rescue (activation) is inactive: 2.24%.

On to `O=c1[nH]c(=S)n(C2CC2)c(O)c1C=Nc1ccc2c(c1)OCO2`, for which the growth rescue (activation) is inactive: 1.29%.

For `CCN1C(=O)NC(=O)/C(=C/c2cc(C)n(-c3sc(C)c(C)c3C#N)c2C)C1=O`, the growth rescue (activation) was inactive: -14.4%.

On to `CC(=O)[C@@]1(O)CCC2C3CC=C4C[C@@H](O)CC[C@]4(C)C3CC[C@@]21C` (some centres not stated), for which the growth rescue (activation) was inactive: 10.1%.

On to `O=C(Nc1ccc(F)cc1F)c1cccn(Cc2ccccc2)c1=O`, for which the growth rescue (activation) is inactive: 15.5%.

As for `CCN(CC)S(=O)(=O)c1ccc(N=Cc2c(O)n(-c3ccccc3)c(=O)[nH]c2=O)cc1`, the growth rescue (activation) is inactive: -34%.

Consider `Nc1c2c(nc3sc4c(c13)CCCC4)CCCCC2`, for which the growth rescue (activation) is inactive: -1.94%.

Regarding `Cc1c(N=Cc2c(O)n(CCc3ccccc3)c(=O)[nH]c2=O)c(=O)n(-c2ccccc2)n1C`, the growth rescue (activation) was inactive: 10.9%.

Regarding `O=C1CC(=O)N(Cc2ccccc2)C(=S)N1`, the growth rescue (activation) was inactive: 21.3%.

As for `Cc1cccc(CNCCc2c[nH]c3ccccc23)c1`, the growth rescue (activation) is inactive: 2.56%.

`COc1cc(OC)c(OC)cc1/C=C1/C(=O)NC(=O)N(Cc2ccccc2)C1=O`: the growth rescue (activation) was inactive: -6.89%.

Turning to `COc1ccc(Cl)cc1C(=O)C1CCCN(CCO)C1` (configuration not stated), the growth rescue (activation) was inactive: 6.09%.

For the compound `CC1=C2C(=O)C3C(CC=C4CC(OC5OC(O)C(O)C(O)C5CO)CCC43C)C2CCC12OC1CC(C)CNC1C2C` (configuration not stated), the growth rescue (activation) was inactive: -2.4%.

For `CCN(CC)C(=O)c1ccc(NC(=O)CNC(C)c2cccc3ccccc23)cc1` (configuration not stated), the growth rescue (activation) is inactive: -4.24%.

Regarding `c1ccc2c(CCNC3CCCCC3)c[nH]c2c1`, the growth rescue (activation) is inactive: 11.3%.

In the case of `C[C@]12CC[C@H](O)CC1=CC(=O)C1C2CC[C@]2(C)C(=O)CCC12` (some centres not stated), the growth rescue (activation) was inactive: 20.6%.

As to `C[C@]12CC[C@H](O)CC1=CCC1C2CC[C@@]2(C)C1C[C@@H](O)[C@@H]2O` (some centres not stated), the growth rescue (activation) is inactive: 7.13%.

Regarding `C[C@]12CC[C@@H](O)CC1=CCC1C2CC[C@@]2(C)C1CC[C@@H]2N` (some centres not stated), the growth rescue (activation) is inactive: -3.21%.

Turning to `CCc1ccccc1NC(=O)CNC1CCCCC1`, the growth rescue (activation) is inactive: 5.09%.

As to `CN(C)c1ccc([P+](=O)c2ccc(N(C)C)cc2)cc1`, the growth rescue (activation) was inactive: 5.93%.

Take `CN(C)C(Cc1ccccc1)C(=O)c1ccccc1` (configuration not stated): the growth rescue (activation) is inactive: -1.66%.

`CC(C)OC(=O)Nc1ccc(N=C(N)N[N+](=O)[O-])cc1`: the growth rescue (activation) is inactive: 6.83%.

As for `O=c1[nH]c(=S)[nH]c(O)c1/C=C1/C=c2ccccc2=N1`, the growth rescue (activation) was inactive: 2.54%.

As to `Cc1cc(/C=C2/C(=O)NC(=O)N(C)C2=O)c(C)n1-c1ccccc1`, the growth rescue (activation) is inactive: 11.2%.

`CCN(CC)c1ccc(CN2CC=C(c3ccc(F)cc3)CC2)cc1`: the growth rescue (activation) is inactive: 3.37%.

For the compound `OC1(c2ccccc2)CCNC2CCCCC21` (configuration not stated), the growth rescue (activation) was inactive: 4.73%.

For the compound `CCCCn1c(O)c(C(C)=Nc2ccc(OCC)cc2)c(=O)[nH]c1=O`, the growth rescue (activation) is inactive: 3.56%.

On to `CCN1C(=O)C(=Cc2ccc(C)s2)C(=O)N(CC)C1=S`, for which the growth rescue (activation) is inactive: 9.57%.

Regarding `O=c1cc(CN2CC=C(c3ccccc3)CC2)c2c(ccc3ccccc32)o1`, the growth rescue (activation) is inactive: -10.7%.

In the case of `C(=N\NC1=NCCCCC1)/c1c[nH]c2ccccc12`, the growth rescue (activation) was inactive: 5.26%.

`CCN(CC(=O)Nc1ccc(C#N)c(Cl)c1)CC(=O)NC1CCS(=O)(=O)C1` (configuration not stated): the growth rescue (activation) is inactive: 5.17%.

Turning to `CC(C)CN1CCN(Cc2c(F)cccc2Cl)CC1CCO` (configuration not stated), the growth rescue (activation) is inactive: -11.5%.

In the case of `O=C(COc1ccccc1)c1cn(Cc2ccccc2)c2ccccc12`, the growth rescue (activation) is inactive: -10.9%.

`NC(N)=N/N=C/c1cn(-c2ccccc2)nc1-c1cccs1`: the growth rescue (activation) is inactive: 24%.

Turning to `Cc1nn(Cc2ccc(Cl)cc2Cl)c(Cl)c1C(=O)O`, the growth rescue (activation) is inactive: -2.01%.

For the compound `CC(C)(C)c1ccc(C(=O)Nc2ccc(Cl)cc2C(=O)c2ccccc2)cc1`, the growth rescue (activation) was inactive: 4.59%.

For the compound `CCC(=O)OC1(c2ccccc2)C(C)CN(C)CC1C` (configuration not stated), the growth rescue (activation) was inactive: 6.62%.

Turning to `CCOP(=O)(OCC)C(NS(=O)(=O)c1ccccc1)C(Cl)(Cl)Cl` (configuration not stated), the growth rescue (activation) was inactive: -15.9%.

Turning to `C=CCn1c(O)c(C(CC)=NCCN2CCN(C(=S)NC)CC2)c(=O)[nH]c1=O`, the growth rescue (activation) was inactive: -6.77%.

Regarding `CCCCn1c(O)c(C(C)=Nc2ccc3c(c2)CCC3)c(=O)[nH]c1=O`, the growth rescue (activation) was inactive: 3.28%.

As to `C[C@]12CCC3C(CC[C@H]4C[C@H](O)CC[C@]34C)C1CCC2=O` (some centres not stated), the growth rescue (activation) was inactive: 35%.

As for `CCCC[N+]12CCC(CC1)C(=C(c1ccccc1)c1ccccc1)C2`, the growth rescue (activation) was inactive: -3.49%.

As to `C#C[C@]1(O)CCC2C3C(CC[C@@]21C)[C@@]1(C)CC[C@@H](O)CC1=C[C@H]3O` (some centres not stated), the growth rescue (activation) is inactive: 0.703%.
